In publication PMC10668032:
The list shows a part of the results. At the low end of the ranking the order means little.

Target: SIX1-Q177R homeodomain (UniProt Q15475)
Assay: universal protein binding microarray
Conditions: Universal all-10-mer PBM (8x60K, AMADID 030236), 300 nM GST-tagged protein, Alexa Fluor 488 anti-GST; buffer, salt, pH and temperature not stated; high values mean tight binding; most listed sequences are background and not binding sites; double strand, one strand shown

Sequence	binding signal [E-score]
CCACTCGG	-0.0024
CGGTTTAG	-0.0771
CTTAGTAA	-0.125
CGGATGAC	-0.0421
AAAAAGAG	-0.145
TCGGCGAA	-0.0558
ATTTGCGA	-0.145
CCCCGTAA	-0.0615
GTTGGTAA	0.103
GACGCTCA	-0.125
AAGCTTAT	0.039
CGTAAAAG	-0.242
CGGAAAGA	-0.142
AGGGAGGA	-0.0377
GTCGAAAC	0.182
CGTGTAAC	0.43
CGGCTTTA	-0.188
GAATGTGA	-0.234
ATCGGTGC	0.204
ACGCGGCG	0.229
CAAGCGTG	0.165
AACTTCCA	-0.212
ATGAGTGG	-0.0177
CGGTACGC	0.00311
GATATACA	0.146

Sequence	binding signal [E-score]
GAGGATTA	-0.22
AGGTGCAG	-0.0171
ACGACTGG	-0.047
CCACCCAA	0.0684
AAATTTCT	-0.259
CCCTTTAG	-0.0944
CGCGCGGA	-0.0815
GGGTGGAA	0.0186
AGCGTCGC	-0.0655
AGAGAGTA	-0.0441
GCCTATTA	0.0123
AAGCCACA	-0.0955
AGCCGTTC	-0.182
CATAATGG	-0.107
AACAGTCT	-0.163
AGTGGCGC	-0.0825
AACTATAG	-0.14
AGGTGGTG	0.287
GTGGCCAA	0.0788
CAGATTAA	-0.134
ACAGAAGG	-0.0447
ACTTAGTC	-0.273
ATAATCAG	-0.0717
CGAACTCG	0.0839
ATACATAT	-0.137

Sequence	binding signal [E-score]
ACATGCAT	-0.166
ACGGCAAC	0.0555
ATCCCCAA	0.233
CCTTCGAC	0.0176
AAAGGAAA	-0.115
AGGTACGA	0.0215
CATAATCC	-0.0496
ATACCCAG	0.274
ACGGCACG	0.00795
CAGTAAGA	-0.211
CCCGAGTC	0.171
ACATTTAT	-0.252
GACATTTA	-0.0932
ATATGGAG	0.128
GTGGGAAA	0.0144
GTGCGCGA	0.0776
CGCCAGCG	0.0433
ATGGTAGA	-0.0925
ACGCATCG	-0.0566
ACTATTAT	-0.111
AGTTGTCC	-0.171
CTCCTCAC	-0.0664
GCGTCAAC	0.121
GGTGTTGA	0.463
CGGGACAG	-0.0892

Sequence	binding signal [E-score]
GGAGATAC	0.122
GGCTTGTA	-0.0582
TGCGAACA	0.158
ATGTTTGG	-0.176
AGTGCGCA	-0.00783
CGTACGTC	-0.0348
ATGCTGAA	-0.269
GACTGCTA	-0.331
CAGTGGAA	-0.222
GAAGCACA	-0.0758
CAGCATAG	-0.0735
GTGAGCAC	0.159
CGCCATAC	-0.101
AGACCGAG	-0.0472
ATATCCGA	0.0995
AAACAAAG	-0.13
CTTAAGGC	-0.17
ATAACCTG	-0.0864
GTAAAATA	-0.211
TCAATCGA	-0.142
GAGACAAA	-0.203
GAAGTCCA	-0.149
AGAAGCAG	-0.205
AGCGGCAA	-0.247
CACCATTC	0.23

Sequence	binding signal [E-score]
ATTGCCAC	-0.215
CGAACCCC	0.238
ATCAAGGA	-0.152
GGCTAAAA	-0.17
AGTGCTAG	0.116
GCAACCTA	-0.14
TATGGAGA	-0.197
AAGAAGTA	-0.0508
CCTCATGA	0.0697
ACACGAGG	0.38
ATCGCGGA	-0.135
TCAAGCAA	-0.249
CAAATCAG	-0.123
AAGTGCGA	-0.025
ATACGTTA	-0.117
GAACATTA	-0.0636
GATCAATC	-0.0461
ATTGGAGA	-0.207
GTTGAGGA	-0.221
AACTGCCT	-0.239
AGGACGTC	-0.256
CAGCGGAG	0.142
AAATCTCC	-0.138
CCCTTTAC	0.166
AAAAGCAG	-0.157

Sequence	binding signal [E-score]
ACGACACC	0.487
ATAGTATA	0.175
AGTGAGCA	0.0888
CTAGTGTC	0.407
CCTGAACG	-0.0725
TATGGGCA	-0.126
CGGGAGGC	-0.192
TAAGGGAA	-0.137
CTGAAGGC	-0.25
AACCACCG	-0.115
GTGGCAAC	-0.0844
ACTAACCG	0.0854
ACGTGTAG	0.347
GTCGGTTA	-0.0594
GATTGTGA	-0.172
AGCAGGAG	-0.0517
ATCGACCG	-0.163
ATATCCTC	-0.103
CAGATCTA	-0.0572
ACTGACAA	0.153
CAAGATAC	0.0571
TAGCTGAA	-0.158
ACGACGTG	0.175
AATTTGTA	-0.0319
CAGTCGAG	-0.113

Sequence	binding signal [E-score]
ACGTATCA	0.0685
CATCGGTA	-0.134
AGTTCTCC	-0.02
GAACTCGC	-0.0668
GCGTTCAC	-0.0775
CTCCTGGA	-0.186
ACTGGATC	0.155
ATCCACTA	0.111
AGTGGATA	0.163
CCATATAC	0.0875
TGCAGCAA	0.0343
GCGCAGCC	-0.238
CTCTAGGC	-0.233
CGCAGCCG	-0.122
AGAACAGG	0.0565
CTCAGGAG	-0.0655
GGGCCATA	-0.18
AAATCTGG	-0.155
GGGCTAGA	-0.00423
CAGGATAC	0.168
GCGTATTA	0.021
CAATCTCC	-0.219
